# According to the supplement of paper PMC8728848:
# The other results are listed elsewhere or left out.
# B1: FliC (Pseudomonas aeruginosa), P72151 (protein)
# chain: MALTVNTNIASLNTQRNLNASSNDLNTSLQRLTTGYRINSAKDDAAGLQISNRLSNQISGLNVATRNANDGISLAQTAEGALQQSTNILQRIRDLALQSANGSNSDADRAALQKEVAAQQAELTRISDTTTFGGRKLLDGSFGTTSFQVGSNAYETIDISLQNASASAIGSYQVGSNGAGTVASVAGTATASGIASGTVNLVGGGQVKNIAIAAGDSAKAIAEKMDGAIPNLSARARTVFTADVSGVTGGSLNFDVTVGSNTVSLAGVTSTQDLADQLNSNSSKLGITASINDKGVLTITSATGENVKFGAQTGTATAGQVAVKVQGSDGKFEAAAKNVVAAGTAATTTIVTGYVQLNSPTAYSVSGTGTQASQVFGNASAAQKSSVASVDISTADGAQNAIAVVDNALAAIDAQRADLGAVQNRFKNTIDNLTNISENATNARSRIKDTDFAAETAALSKNQVLQQAGTAILAQANQLPQAVLSLLR
# Assays:
# Experiment in all cases: glycan array binding signal (z-score within array); higher = stronger binding
# Settings in all cases: glycan notation: IUPAC condensed, linker removed
# Fuc(a1-3)GlcNAc = target: Fuc(a1-3)GlcNAc
# Outline: (§1)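 Arrays were curated from the Consortium for Functional Glycomics database, 3228 in total, and kept only where the protein sequence was available. Binding is expressed as a within-array Z-score. This score was averaged across arrays of the same protein sequence at different concentrations or buffers and across linkers, and negative values can be read as non-binding.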
# [1] = target: Fuc(a1-3)[Gal(b1-4)]Glc6S
# Outline: as §1
# [2] = target: Fuc(a1-3)[Gal(b1-4)]GlcNAc
# Outline: as §1
# [3] = target: Fuc(a1-3)[Gal(b1-4)]GlcNAc(b1-2)Man
# Outline: as §1
# [4] = target: Fuc(a1-3)[Gal(b1-4)]GlcNAc(b1-2)Man(a1-3)[Fuc(a1-3)[Gal(b1-4)]GlcNAc(b1-2)Man(a1-6)]Man(b1-4)GlcNAc(b1-4)GlcNAc
# Outline: as §1
# [5] = target: Fuc(a1-3)[Gal(b1-4)]GlcNAc(b1-2)Man(a1-3)[Fuc(a1-3)[Gal(b1-4)]GlcNAc(b1-2)Man(a1-6)]Man(b1-4)GlcNAc(b1-4)[Fuc(a1-6)]GlcNAc
# Outline: as §1
# [6] = target: Fuc(a1-3)[Gal(b1-4)]GlcNAc(b1-3)Gal(b1-3)[Fuc(a1-4)]GlcNAc
# Outline: as §1
# [7] = target: Fuc(a1-3)[Gal(b1-4)]GlcNAc(b1-3)GalNAc
# Outline: as §1
# [8] = target: Fuc(a1-3)[Gal(b1-4)]GlcNAc(b1-4)Gal(b1-4)[Fuc(a1-3)]GlcNAc
# Outline: as §1
# [9] = target: Fuc(a1-3)[Gal(b1-4)]GlcNAc(b1-4)Gal(b1-4)[Fuc(a1-3)]GlcNAc(b1-4)Gal(b1-4)[Fuc(a1-3)]GlcNAc
# Outline: as §1
# [10] = target: Fuc(a1-3)[Gal(b1-4)]GlcNAc(b1-6)GalNAc
# Outline: as §1
# [11] = target: Fuc(a1-3)[Gal(b1-4)]GlcNAc(b1-6)[Gal(b1-3)GlcNAc(b1-3)]Gal(b1-4)Glc
# Outline: as §1
# [12] = target: Fuc(a1-3)[Gal(b1-4)]GlcNAc6S
# Outline: as §1
# [13] = target: Fuc(a1-3)[Gal3S(b1-4)]Glc
# Outline: as §1
# [14] = target: Fuc(a1-3)[Gal3S(b1-4)]GlcNAc
# Outline: as §1
# [15] = target: Fuc(a1-3)[Gal3S(b1-4)]GlcNAc6S
# Outline: as §1
# [16] = target: Fuc(a1-3)[GalNAc(b1-4)]GlcNAc
# Outline: as §1
# [17] = target: Fuc(a1-3)[GalNAc(b1-4)]GlcNAc6S
# Outline: as §1
# Fuc(a1-4)GlcNAc = target: Fuc(a1-4)GlcNAc
# Outline: as §1
# Fuc(b1-3)GlcNAc = target: Fuc(b1-3)GlcNAc
# Outline: as §1
# Gal(a1-2)Gal = target: Gal(a1-2)Gal
# Outline: as §1
# Gal(a1-3)Gal = target: Gal(a1-3)Gal
# Outline: as §1
# Gal(a1-3)Gal(b1-3)GlcNAc = target: Gal(a1-3)Gal(b1-3)GlcNAc
# Outline: as §1
# [18] = target: Gal(a1-3)Gal(b1-3)GlcNAc(b1-2)Man
# Outline: as §1
# [19] = target: Gal(a1-3)Gal(b1-3)GlcNAc(b1-2)Man(a1-3)[Gal(a1-3)Gal(b1-3)GlcNAc(b1-2)Man(a1-6)]Man(b1-4)GlcNAc(b1-4)GlcNAc
# Outline: as §1
# [20] = target: Gal(a1-3)Gal(b1-3)GlcNAc(b1-3)GalNAc
# Outline: as §1
# [21] = target: Gal(a1-3)Gal(b1-3)GlcNAc(b1-6)GalNAc
# Outline: as §1
# [22] = target: Gal(a1-3)Gal(b1-3)[Fuc(a1-4)]GlcNAc(b1-2)Man(a1-3)[Gal(a1-3)Gal(b1-3)[Fuc(a1-4)]GlcNAc(b1-2)Man(a1-6)]Man(b1-4)GlcNAc(b1-4)GlcNAc
# Outline: as §1
# Gal(a1-3)Gal(b1-4)Glc = target: Gal(a1-3)Gal(b1-4)Glc
# Outline: as §1
# Gal(a1-3)Gal(b1-4)GlcNAc = target: Gal(a1-3)Gal(b1-4)GlcNAc
# Outline: as §1
binder,measurement,setting,value
B1,glycan array binding signal (z-score),Fuc(a1-3)GlcNAc,-0.077
same,glycan array binding signal (z-score),[1],-0.187
same,glycan array binding signal (z-score),[2],0.03
same,glycan array binding signal (z-score),[3],-0.146
same,glycan array binding signal (z-score),[4],-0.081
same,glycan array binding signal (z-score),[5],-0.224
same,glycan array binding signal (z-score),[6],-0.113
same,glycan array binding signal (z-score),[7],0.178
same,glycan array binding signal (z-score),[8],0.099
same,glycan array binding signal (z-score),[9],-0.169
same,glycan array binding signal (z-score),[10],-0.206
same,glycan array binding signal (z-score),[11],-0.153
same,glycan array binding signal (z-score),[12],-0.157
same,glycan array binding signal (z-score),[13],-0.196
same,glycan array binding signal (z-score),[14],-0.011
same,glycan array binding signal (z-score),[15],-0.147
same,glycan array binding signal (z-score),[16],0.089
same,glycan array binding signal (z-score),[17],-0.216
same,glycan array binding signal (z-score),Fuc(a1-4)GlcNAc,-0.226
same,glycan array binding signal (z-score),Fuc(b1-3)GlcNAc,-0.086
same,glycan array binding signal (z-score),Gal(a1-2)Gal,-0.009
same,glycan array binding signal (z-score),Gal(a1-3)Gal,-0.029
same,glycan array binding signal (z-score),Gal(a1-3)Gal(b1-3)GlcNAc,0.361
same,glycan array binding signal (z-score),[18],-0.177
same,glycan array binding signal (z-score),[19],-0.162
same,glycan array binding signal (z-score),[20],-0.143
same,glycan array binding signal (z-score),[21],0.888
same,glycan array binding signal (z-score),[22],-0.222
same,glycan array binding signal (z-score),Gal(a1-3)Gal(b1-4)Glc,-0.212
same,glycan array binding signal (z-score),Gal(a1-3)Gal(b1-4)GlcNAc,0.98
